# Hit rate of the full screen: of about 310,000 compounds, about 14,000 (4.5%) showed an effect of 50% or more. The effect is printed as a negative number. The list shows a part of the results.
# Target: human ether-à-go-go-related gene (hERG) potassium channel (human, UniProt Q12809)
# Test: primary screen, population patch clamp on CHO cells stably expressing hERG
# 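Also: peak tail current of the secondary pulse compared with the same well before compound.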
# human ether-à-go-go-related gene (hERG) potassium channel, sequence (Q12809 whole entry, looked up): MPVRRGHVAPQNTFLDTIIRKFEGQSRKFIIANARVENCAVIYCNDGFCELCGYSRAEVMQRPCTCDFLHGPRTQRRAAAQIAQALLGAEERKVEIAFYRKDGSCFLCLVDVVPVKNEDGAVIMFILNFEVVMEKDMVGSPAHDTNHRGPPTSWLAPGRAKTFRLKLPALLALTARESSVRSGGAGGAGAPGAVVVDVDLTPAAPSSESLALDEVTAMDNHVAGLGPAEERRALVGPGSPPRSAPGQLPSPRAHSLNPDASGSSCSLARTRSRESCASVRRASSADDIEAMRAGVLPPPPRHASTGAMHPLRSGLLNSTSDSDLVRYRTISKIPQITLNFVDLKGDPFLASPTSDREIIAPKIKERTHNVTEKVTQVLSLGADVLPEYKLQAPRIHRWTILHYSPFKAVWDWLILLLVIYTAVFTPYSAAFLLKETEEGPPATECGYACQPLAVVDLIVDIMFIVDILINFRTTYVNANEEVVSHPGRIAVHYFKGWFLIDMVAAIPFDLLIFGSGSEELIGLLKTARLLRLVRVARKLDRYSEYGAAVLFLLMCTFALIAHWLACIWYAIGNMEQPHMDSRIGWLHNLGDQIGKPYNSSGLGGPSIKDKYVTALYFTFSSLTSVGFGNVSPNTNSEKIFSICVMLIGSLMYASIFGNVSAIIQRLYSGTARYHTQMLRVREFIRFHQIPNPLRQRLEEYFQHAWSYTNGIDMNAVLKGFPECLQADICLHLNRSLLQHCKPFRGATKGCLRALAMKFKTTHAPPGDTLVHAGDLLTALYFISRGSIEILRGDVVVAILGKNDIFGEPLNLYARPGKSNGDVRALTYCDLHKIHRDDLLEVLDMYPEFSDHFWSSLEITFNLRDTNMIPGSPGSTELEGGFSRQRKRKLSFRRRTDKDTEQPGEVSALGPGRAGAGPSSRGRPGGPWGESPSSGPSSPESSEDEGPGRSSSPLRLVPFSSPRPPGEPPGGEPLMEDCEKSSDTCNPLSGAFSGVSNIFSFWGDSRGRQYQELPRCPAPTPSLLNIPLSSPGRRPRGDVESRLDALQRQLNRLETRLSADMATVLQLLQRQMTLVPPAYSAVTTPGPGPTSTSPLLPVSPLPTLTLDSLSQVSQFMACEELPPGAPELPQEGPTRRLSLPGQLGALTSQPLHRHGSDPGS
row,SMILES,"hERG current change (%, negative = inhibition) at 10uM [%]"
1,Cl.OCCNCc1ccc(OCc2ccc(Cl)cc2Cl)cc1,-45.8
2,O=C(CCCCCCCCC(=O)N/N=C/c1ccco1)N/N=C/c1ccco1,-4.84
3,Cc1cc(CN2C(=O)c3ccccc3C2=O)no1,-6.1
4,CCOC(=O)c1[nH]c(C)c(C(=O)c2ccc(C)cc2)c1C,11.2
5,COc1cc(-c2nc(-c3ccc4c(c3)-c3ccccc3S4(=O)=O)c(-c3ccccc3)[nH]2)cc(OC)c1O,24.5
6,O=C(CCN1CCc2ccccc2C1)Nc1ccccc1F,-20
7,Cc1cc(C=C(C#N)C#N)ccc1N1CCCC1,-65
8,COC(=O)c1cc(N2C(=O)C3C(C2=O)C2(C)C=CC3(C)O2)ccc1Cl (stereo not shown),-14.8
9,COc1cccc(CC(=O)NNC(=O)c2c(-c3ccccc3)noc2C)c1,-43.7
10,COc1ccc(CCNC(=S)Nc2cc(C)ccc2C)cc1,-15.9
11,C/C(=C/Cc1c(O)cc2oc(C)cc(=O)c2c1O)COC1OC(CO)C(O)C(O)C1O (stereo not shown),2.15
12,O=C(Nc1cccc(-c2cccc(F)c2)c1)C1CCN(Cc2ccc(CO)o2)CC1,-70.3
13,CCC(=O)Nc1cc(C)c(OC)c(C)c1,21
14,COc1ccc(NC(C)c2cc(Cl)ccc2O)cc1 (stereo not shown),1.76
15,CCOC(=O)C1C2C=CC(CC2)N1c1ccccc1 (stereo not shown),-18.6
16,Cc1[nH][nH]c(=O)c1C(c1c(C)[nH][nH]c1=O)c1cn(Cc2ccc(Cl)c(Cl)c2)c2ccccc12,3.86
17,Cc1ccsc1/C=C1/SC(N2CC(C)OC(C)C2)=NC1=O (stereo not shown),2.64
18,O=S(=O)(c1ccc(OCC(O)CN2CCN(c3ccccc3O)CC2)cc1)N1CCOCC1 (stereo not shown),-6.91
19,O=C(/C=C/c1ccccc1)N1CCC(c2ccccc2)C1 (stereo not shown),-57.6
20,COC(=O)c1cc(OC)cc(O)c1C(=O)c1c(O)cc(C)cc1O,9.23
21,O=C(CNC(=O)N1CC(=O)Nc2ccccc21)Nc1ccccc1F,18.5
22,O=C(CN1C(=O)CSc2ncccc21)Nc1cccc(Cl)c1,-25.4
23,CCc1cccc(CC)c1NC(=O)c1ccc(-n2cncn2)nc1,-3.1
24,CCOc1cc2[nH]c(=O)n(Cc3ccccc3)c(=O)c2cc1OCC,-2.18
25,COc1ccc(OCc2nnc(SCC(=O)NC3CC4CCC3C4)o2)cc1 (stereo not shown),9.36
26,O=C(O)COc1ccc(/C=N/n2cnc3scc(-c4cccs4)c3c2=O)cc1,13.2
27,CC(=O)c1ccc(OCc2cc([N+](=O)[O-])cc3c2OCOC3)cc1,4.27
28,O=S(=O)(NCc1ccccc1)c1ccc(S(=O)(=O)N(Cc2ccccn2)C2CCCC2)cc1,-7.51

row,SMILES,"hERG current change (%, negative = inhibition) at 10uM [%]"
1,CC1CC(C)CN(CCCNC(=O)C2CCN(S(=O)(=O)N3CCCCC3)CC2)C1 (stereo not shown),-18.3
2,CCCCN(C(=O)CCNC(=O)NC12CC3CC(CC(C3)C1)C2)c1c(N)n(CCCC)c(=O)[nH]c1=O,13.4
3,Cc1ccc(S(=O)(=O)Nc2c(O)c3ccccc3oc2=O)cc1,12.6
4,CCOC(=O)N1CCN(S(=O)(=O)c2ccc(OC)c3ccccc23)CC1,-31.9
5,COc1ccc(N2CCN(C(CNC(=O)CC(C)(C)C)c3ccc4c(c3)OCO4)CC2)cc1 (stereo not shown),-21.3
6,Cc1nc(NS(=O)(=O)c2ccccc2C)c2c3c(sc2n1)CCC3,-12.5
7,O=C(Nc1cccc(C(F)(F)F)c1)c1n[nH]c(Cn2cncn2)n1,-1.92
8,O=C(O)c1ccc(Nc2nc(-c3ccccc3)c3ccccc3n2)cc1,0.75
9,CCN(C(=O)COC(=O)/C=C/c1cccc([N+](=O)[O-])c1)c1c(N)n(Cc2ccccc2)c(=O)[nH]c1=O,14.1
10,Cc1ccc(CNC(=O)C2CCC(CNc3nc(=S)[nH]c4ccccc34)CC2)cc1 (stereo not shown),14.2
11,COC(=O)CCN(C1CCCCC1)S(=O)(=O)c1ccc(S(=O)(=O)NC2CCCCC2)cc1,2.73
12,O=Cc1cc(N=Nc2cccc(C(=O)O)c2)ccc1O,15.1
13,N#Cc1c(C(F)(F)F)cc(-c2ccccc2)nc1SCCN1CCOCC1,-3.77
14,Cc1cccc(OCCCC(=O)Nc2ccc(N3CCCCC3)cc2)c1,5.49
15,Cc1nn(-c2ccccc2)c(N)c1Sc1cccc([N+](=O)[O-])c1.Cl,-65.9
16,O=C(O)c1ccc(COc2ccc3ccccc3c2/C=C2/NC(=O)N(c3ccccc3)C2=O)cc1,-8.37
17,COCCCNC(=S)N(CCN(C)C)Cc1cc2cc3c(cc2[nH]c1=O)OCCO3,25.5
18,Cc1ccc(S(=O)(=O)N/N=C/c2cccc([N+](=O)[O-])c2)cc1,7.95
19,Cc1cccc(NC(=O)CCS(=O)(=O)c2cccc3nonc23)c1C,7.7
20,COC(=O)CSc1nnc(CNc2nc(-c3ccccc3)cs2)n1C,-2.27
21,CC(=O)N(C)c1ccc(NC(=O)C(F)(F)F)cc1,0.386
22,O=C1N=C(N2CCOCC2)S/C1=C1\C(=O)N(Cc2ccccc2)c2ccccc21,6.48
23,Brc1cc2c(cc1CN1CCN(c3ccccc3)CC1)OCCO2,-8.97
24,COc1cccc(OC)c1C(=O)Nc1sc2c(c1C(N)=O)CCN(Cc1ccccc1)C2.Cl,-14.2
25,CCOC(=O)c1sc(NC(=O)c2ccco2)nc1-c1ccccc1,10.3
26,Cc1onc(-c2ccccc2Cl)c1C(=O)Nc1nnc(C(C)C)s1,-3.27
27,CC(=O)Nc1ccc(C(=O)N/C(=C/c2ccccc2)C(=O)Nc2cccc(C(=O)O)c2)cc1,15.8

# Source: article PMC4336329 (PLoS ONE, 2015)
